# Results published in the supplement of paper PMC8728848.
# The other results are listed elsewhere or left out.
# B1: PX9937B-bvu-524-33-524 (Bacteroides vulgatus) (protein)
# chain: GTAYWKNPDQFTAFNTGLHALLREKSYNFFLLGEPRADIYGDNPIGGEASQGMERLPFNTINKENVGISNYGDMYKIINQINQMIAKTTETTILTEATQNYYLGEAYGMRAYLYFHLLRSWGDVVLYLDYTEGQNLDLSNITKGVSPATEVMEQIKKDIQASENAFGSDYSFKLGRHFWSAAATQMLKGEAYLWSGRQMNGGNSDYTIAKNAFENVKKADVGLVTSSFKDIFSFENKKNKEMIFTIHNGKDEYEMWGGYYRMRLIPAQDKMVKIYCDENGNSFVGTPDAQLNGLTQLQVRREFYFKGFRNNDTRWTTSLKAVYKKDAQGVVSYFGPITYKFQGTMLEGGSTRSFLDDFPIYRYADCLLQLAMAKVLLGEDPTEEINAVRERAYGSKYFNEHKAEIAYPNDNDPEFYTDNKWMKPDNAGALEAILKERLREFMFEGKRWYDIRLLGWDYVHQYSSAEQSRLLWPIDAGTLTNNSALKQTPGYE
# Key:
# Experiment in all cases: glycan array binding signal (z-score within array); higher = stronger binding
# Conditions in all cases: glycan notation: IUPAC condensed, linker removed
# [1] = target: GlcNAc(b1-3)Gal(b1-4)GlcNAc(b1-3)Gal(b1-4)GlcNAc(b1-3)GalNAc
# Method in brief: (§1)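 Glycan array binding is given as a within-array Z-score, which can be read as non-binding when negative. The arrays, 3228 of them, came from the Consortium for Functional Glycomics database and were retained only where the protein sequence was available. Z-scores were averaged across arrays of the same protein sequence at different concentrations or buffers and across linkers.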
# [2] = target: GlcNAc(b1-3)Gal(b1-4)GlcNAc(b1-3)GalNAc
# Method in brief: as §1
# [3] = target: GlcNAc(b1-3)Gal(b1-4)GlcNAc(b1-3)[GlcNAc(b1-3)Gal(b1-4)GlcNAc(b1-3)]GalNAc
# Method in brief: as §1
# [4] = target: GlcNAc(b1-3)Gal(b1-4)GlcNAc(b1-6)[Gal(b1-3)]GalNAc
# Method in brief: as §1
# [5] = target: GlcNAc(b1-3)Gal(b1-4)GlcNAc(b1-6)[GlcNAc(b1-3)Gal(b1-3)]GalNAc
# Method in brief: as §1
# [6] = target: GlcNAc(b1-3)Gal(b1-4)GlcNAc(b1-6)[GlcNAc(b1-3)]Gal(b1-4)GlcNAc
# Method in brief: as §1
# GlcNAc(b1-3)GalNAc = target: GlcNAc(b1-3)GalNAc
# Method in brief: as §1
# GlcNAc(b1-3)Man = target: GlcNAc(b1-3)Man
# Method in brief: as §1
# [7] = target: GlcNAc(b1-3)[GlcNAc(b1-4)][GlcNAc(b1-6)]GlcNAc
# Method in brief: as §1
# [8] = target: GlcNAc(b1-3)[GlcNAc(b1-6)]Gal(b1-4)GlcNAc
# Method in brief: as §1
# [9] = target: GlcNAc(b1-3)[GlcNAc(b1-6)]GalNAc
# Method in brief: as §1
# [10] = target: GlcNAc(b1-4)Gal(b1-4)GlcNAc
# Method in brief: as §1
# GlcNAc(b1-4)GlcNAc = target: GlcNAc(b1-4)GlcNAc
# Method in brief: as §1
# [11] = target: GlcNAc(b1-4)GlcNAc(b1-4)GlcNAc
# Method in brief: as §1
# [12] = target: GlcNAc(b1-4)GlcNAc(b1-4)GlcNAc(b1-4)GlcNAc(b1-4)GlcNAc
# Method in brief: as §1
# [13] = target: GlcNAc(b1-4)GlcNAc(b1-4)GlcNAc(b1-4)GlcNAc(b1-4)GlcNAc(b1-4)GlcNAc
# Method in brief: as §1
# [14] = target: GlcNAc(b1-4)[GlcNAc(b1-6)]GalNAc
# Method in brief: as §1
# [15] = target: GlcNAc(b1-6)Gal(b1-4)GlcNAc
# Method in brief: as §1
# GlcNAc(b1-6)GalNAc = target: GlcNAc(b1-6)GalNAc
# Method in brief: as §1
# [16] = target: GlcNAc6S(b1-3)Gal(b1-4)GlcNAc
# Method in brief: as §1
# Kdn(a2-3)Gal(b1-3)GalNAc = target: Kdn(a2-3)Gal(b1-3)GalNAc
# Method in brief: as §1
# Kdn(a2-3)Gal(b1-3)GlcNAc = target: Kdn(a2-3)Gal(b1-3)GlcNAc
# Method in brief: as §1
# Kdn(a2-3)Gal(b1-4)Glc = target: Kdn(a2-3)Gal(b1-4)Glc
# Method in brief: as §1
# Kdn(a2-3)Gal(b1-4)GlcNAc = target: Kdn(a2-3)Gal(b1-4)GlcNAc
# Method in brief: as §1
# [17] = target: Kdn(a2-3)Gal(b1-4)[Fuc(a1-3)]GlcNAc
# Method in brief: as §1
# Kdn(a2-6)Gal(b1-4)GlcNAc = target: Kdn(a2-6)Gal(b1-4)GlcNAc
# Method in brief: as §1
# [18] = target: Man(a1-2)Man(a1-2)Man(a1-3)Man
# Method in brief: as §1
# [19] = target: Man(a1-2)Man(a1-2)Man(a1-6)[Man(a1-3)]Man
# Method in brief: as §1
# Man(a1-2)Man(a1-3)Man = target: Man(a1-2)Man(a1-3)Man
# Method in brief: as §1
# [20] = target: Man(a1-2)Man(a1-3)[Man(a1-2)Man(a1-6)]Man
# Method in brief: as §1
# [21] = target: Man(a1-2)Man(a1-3)[Man(a1-2)Man(a1-6)]Man(a1-6)[Man(a1-2)Man(a1-2)Man(a1-3)]Man
# Method in brief: as §1
# [22] = target: Man(a1-2)Man(a1-3)[Man(a1-2)Man(a1-6)]Man(a1-6)[Man(a1-2)Man(a1-2)Man(a1-3)]Man(b1-4)GlcNAc(b1-4)GlcNAc
# Method in brief: as §1
# [23] = target: Man(a1-2)Man(a1-3)[Man(a1-6)]Man(a1-6)[Man(a1-2)Man(a1-3)]Man(b1-4)GlcNAc(b1-4)GlcNAc
# Method in brief: as §1
# [24] = target: Man(a1-2)Man(a1-6)[Man(a1-3)]Man(a1-6)[Man(a1-2)Man(a1-2)Man(a1-3)]Man
# Method in brief: as §1
# [25] = target: Man(a1-2)Man(a1-6)[Man(a1-3)]Man(a1-6)[Man(a1-2)Man(a1-2)Man(a1-3)]Man(b1-4)GlcNAc(b1-4)GlcNAc
# Method in brief: as §1
# Man(a1-3)[Man(a1-6)]Man = target: Man(a1-3)[Man(a1-6)]Man
# Method in brief: as §1
# [26] = target: Man(a1-3)[Man(a1-6)]Man(a1-6)[Man(a1-2)Man(a1-3)]Man(b1-4)GlcNAc(b1-4)GlcNAc
# Method in brief: as §1
binder,measurement,setting,value
B1,glycan array binding signal (z-score),[1],-0.217
same,glycan array binding signal (z-score),[2],-0.5
same,glycan array binding signal (z-score),[3],-0.108
same,glycan array binding signal (z-score),[4],-0.376
same,glycan array binding signal (z-score),[5],0.197
same,glycan array binding signal (z-score),[6],-0.522
same,glycan array binding signal (z-score),GlcNAc(b1-3)GalNAc,-0.167
same,glycan array binding signal (z-score),GlcNAc(b1-3)Man,0.006
same,glycan array binding signal (z-score),[7],-0.212
same,glycan array binding signal (z-score),[8],-0.348
same,glycan array binding signal (z-score),[9],-0.209
same,glycan array binding signal (z-score),[10],-0.385
same,glycan array binding signal (z-score),GlcNAc(b1-4)GlcNAc,-0.24
same,glycan array binding signal (z-score),[11],-0.256
same,glycan array binding signal (z-score),[12],-0.489
same,glycan array binding signal (z-score),[13],-0.188
same,glycan array binding signal (z-score),[14],-0.214
same,glycan array binding signal (z-score),[15],-0.358
same,glycan array binding signal (z-score),GlcNAc(b1-6)GalNAc,-0.087
same,glycan array binding signal (z-score),[16],-0.196
same,glycan array binding signal (z-score),Kdn(a2-3)Gal(b1-3)GalNAc,-0.215
same,glycan array binding signal (z-score),Kdn(a2-3)Gal(b1-3)GlcNAc,-0.588
same,glycan array binding signal (z-score),Kdn(a2-3)Gal(b1-4)Glc,-0.28
same,glycan array binding signal (z-score),Kdn(a2-3)Gal(b1-4)GlcNAc,-0.189
same,glycan array binding signal (z-score),[17],-0.28
same,glycan array binding signal (z-score),Kdn(a2-6)Gal(b1-4)GlcNAc,-0.409
same,glycan array binding signal (z-score),[18],-0.369
same,glycan array binding signal (z-score),[19],-0.256
same,glycan array binding signal (z-score),Man(a1-2)Man(a1-3)Man,-0.301
same,glycan array binding signal (z-score),[20],-0.403
same,glycan array binding signal (z-score),[21],0.287
same,glycan array binding signal (z-score),[22],-0.308
same,glycan array binding signal (z-score),[23],0.266
same,glycan array binding signal (z-score),[24],0.281
same,glycan array binding signal (z-score),[25],-0.575
same,glycan array binding signal (z-score),Man(a1-3)[Man(a1-6)]Man,-0.449
same,glycan array binding signal (z-score),[26],-0.193
